Laboratory results published in the supplement of paper PMC8728848.
The other results are listed elsewhere or left out.

Assays:
Test in all cases: glycan array binding signal (z-score within array); higher = stronger binding
Conditions in all cases: glycan notation: IUPAC condensed, linker removed
GlcA(b1-3)Gal = target: GlcA(b1-3)Gal
How it was run: (§1)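 The binding signal is a Z-score computed within each array. Data were drawn from 3228 arrays in the Consortium for Functional Glycomics database, restricted to those with a known protein sequence. Scores were averaged over arrays of the same protein sequence at different concentrations or buffers, and over linkers, and negative values can be taken as non-binding.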

GlcA(b1-3)GlcNAc = target: GlcA(b1-3)GlcNAc
How it was run: as §1

GlcA(b1-6)Gal = target: GlcA(b1-6)Gal
How it was run: as §1

[1] = target: GlcA3S(b1-3)Gal(b1-4)GlcNAc(b1-2)Man
How it was run: as §1

[2] = target: GlcA3S(b1-3)Gal(b1-4)GlcNAc(b1-3)Gal(b1-4)Glc
How it was run: as §1

[3] = target: GlcNAc(a1-3)Gal(b1-4)GlcNAc
How it was run: as §1

[4] = target: GlcNAc(a1-4)Gal(b1-3)GlcNAc
How it was run: as §1

[5] = target: GlcNAc(a1-4)Gal(b1-4)GalNAc
How it was run: as §1

[6] = target: GlcNAc(a1-4)Gal(b1-4)GlcNAc
How it was run: as §1

[7] = target: GlcNAc(a1-4)Gal(b1-4)GlcNAc(b1-3)Gal(b1-4)Glc
How it was run: as §1

[8] = target: GlcNAc(a1-4)Gal(b1-4)GlcNAc(b1-3)Gal(b1-4)GlcNAc
How it was run: as §1

[9] = target: GlcNAc(a1-4)Gal(b1-4)GlcNAc(b1-3)Gal(b1-4)GlcNAc(b1-3)Gal(b1-4)GlcNAc
How it was run: as §1

[10] = target: GlcNAc(a1-4)Gal(b1-4)GlcNAc(b1-3)Gal(b1-4)[Fuc(a1-3)]GlcNAc(b1-3)Gal(b1-4)[Fuc(a1-3)]GlcNAc
How it was run: as §1

[11] = target: GlcNAc(a1-6)Gal(b1-4)GlcNAc
How it was run: as §1

[12] = target: GlcNAc(b1-2)Gal(b1-3)GalNAc
How it was run: as §1

[13] = target: GlcNAc(b1-2)Man(a1-3)[GlcNAc(b1-2)Man(a1-6)]Man(b1-4)GlcNAc(b1-4)GlcNAc
How it was run: as §1

[14] = target: GlcNAc(b1-2)Man(a1-3)[GlcNAc(b1-2)Man(a1-6)]Man(b1-4)GlcNAc(b1-4)[Fuc(a1-6)]GlcNAc
How it was run: as §1

[15] = target: GlcNAc(b1-2)Man(a1-3)[GlcNAc(b1-4)][GlcNAc(b1-2)Man(a1-6)]Man(b1-4)GlcNAc(b1-4)GlcNAc
How it was run: as §1

[16] = target: GlcNAc(b1-2)Man(a1-3)[GlcNAc(b1-4)][GlcNAc(b1-2)Man(a1-6)]Man(b1-4)GlcNAc(b1-4)[Fuc(a1-6)]GlcNAc
How it was run: as §1

[17] = target: GlcNAc(b1-2)[GlcNAc(b1-4)]Man(a1-3)[GlcNAc(b1-2)Man(a1-6)]Man(b1-4)GlcNAc(b1-4)GlcNAc
How it was run: as §1

[18] = target: GlcNAc(b1-2)[GlcNAc(b1-4)]Man(a1-3)[GlcNAc(b1-4)][GlcNAc(b1-2)Man(a1-6)]Man(b1-4)GlcNAc(b1-4)GlcNAc
How it was run: as §1

[19] = target: GlcNAc(b1-2)[GlcNAc(b1-4)]Man(a1-3)[GlcNAc(b1-4)][GlcNAc(b1-2)[GlcNAc(b1-6)]Man(a1-6)]Man(b1-4)GlcNAc(b1-4)GlcNAc
How it was run: as §1

[20] = target: GlcNAc(b1-2)[GlcNAc(b1-4)]Man(a1-3)[GlcNAc(b1-4)][GlcNAc(b1-2)[GlcNAc(b1-6)]Man(a1-6)]Man(b1-4)GlcNAc(b1-4)[Fuc(a1-6)]GlcNAc
How it was run: as §1

[21] = target: GlcNAc(b1-2)[GlcNAc(b1-6)]Man(a1-6)[GlcNAc(b1-2)Man(a1-3)]Man(b1-4)GlcNAc(b1-4)GlcNAc
How it was run: as §1

[22] = target: GlcNAc(b1-2)[GlcNAc(b1-6)]Man(a1-6)[GlcNAc(b1-2)Man(a1-3)]Man(b1-4)GlcNAc(b1-4)[Fuc(a1-6)]GlcNAc
How it was run: as §1

[23] = target: GlcNAc(b1-2)[GlcNAc(b1-6)]Man(a1-6)[GlcNAc(b1-4)][GlcNAc(b1-2)Man(a1-3)]Man(b1-4)GlcNAc(b1-4)GlcNAc
How it was run: as §1

GlcNAc(b1-3)Fuc = target: GlcNAc(b1-3)Fuc
How it was run: as §1

GlcNAc(b1-3)Gal = target: GlcNAc(b1-3)Gal
How it was run: as §1

[24] = target: GlcNAc(b1-3)Gal(b1-3)GalNAc
How it was run: as §1

GlcNAc(b1-3)Gal(b1-4)Glc = target: GlcNAc(b1-3)Gal(b1-4)Glc
How it was run: as §1

[25] = target: GlcNAc(b1-3)Gal(b1-4)GlcNAc
How it was run: as §1

[26] = target: GlcNAc(b1-3)Gal(b1-4)GlcNAc(b1-2)Man(a1-3)[GlcNAc(b1-3)Gal(b1-4)GlcNAc(b1-2)Man(a1-6)]Man(b1-4)GlcNAc(b1-4)GlcNAc
How it was run: as §1

[27] = target: GlcNAc(b1-3)Gal(b1-4)GlcNAc(b1-2)Man(a1-3)[GlcNAc(b1-3)Gal(b1-4)GlcNAc(b1-2)Man(a1-6)]Man(b1-4)GlcNAc(b1-4)[Fuc(a1-6)]GlcNAc
How it was run: as §1

[28] = target: GlcNAc(b1-3)Gal(b1-4)GlcNAc(b1-2)[GlcNAc(b1-3)Gal(b1-4)GlcNAc(b1-6)]Man(a1-6)[GlcNAc(b1-3)Gal(b1-4)GlcNAc(b1-2)Man(a1-3)]Man(b1-4)GlcNAc(b1-4)GlcNAc
How it was run: as §1

[29] = target: GlcNAc(b1-3)Gal(b1-4)GlcNAc(b1-3)Gal(b1-4)GlcNAc
How it was run: as §1

[30] = target: GlcNAc(b1-3)Gal(b1-4)GlcNAc(b1-3)Gal(b1-4)GlcNAc(b1-2)Man(a1-3)[GlcNAc(b1-3)Gal(b1-4)GlcNAc(b1-3)Gal(b1-4)GlcNAc(b1-2)Man(a1-6)]Man(b1-4)GlcNAc(b1-4)GlcNAc
How it was run: as §1

[31] = target: GlcNAc(b1-3)Gal(b1-4)GlcNAc(b1-3)Gal(b1-4)GlcNAc(b1-2)Man(a1-3)[GlcNAc(b1-3)Gal(b1-4)GlcNAc(b1-3)Gal(b1-4)GlcNAc(b1-2)Man(a1-6)]Man(b1-4)GlcNAc(b1-4)[Fuc(a1-6)]GlcNAc
How it was run: as §1

[32] = target: GlcNAc(b1-3)Gal(b1-4)GlcNAc(b1-3)Gal(b1-4)GlcNAc(b1-2)[GlcNAc(b1-3)Gal(b1-4)GlcNAc(b1-3)Gal(b1-4)GlcNAc(b1-6)]Man(a1-6)[GlcNAc(b1-3)Gal(b1-4)GlcNAc(b1-3)Gal(b1-4)GlcNAc(b1-2)Man(a1-3)]Man(b1-4)GlcNAc(b1-4)[Fuc(a1-6)]GlcNAc
How it was run: as §1

[33] = target: GlcNAc(b1-3)Gal(b1-4)GlcNAc(b1-3)Gal(b1-4)GlcNAc(b1-3)Gal(b1-4)GlcNAc(b1-2)Man(a1-3)[GlcNAc(b1-3)Gal(b1-4)GlcNAc(b1-3)Gal(b1-4)GlcNAc(b1-3)Gal(b1-4)GlcNAc(b1-2)Man(a1-6)]Man(b1-4)GlcNAc(b1-4)GlcNAc
How it was run: as §1

[34] = target: GlcNAc(b1-3)Gal(b1-4)GlcNAc(b1-3)Gal(b1-4)GlcNAc(b1-3)Gal(b1-4)GlcNAc(b1-2)Man(a1-3)[GlcNAc(b1-3)Gal(b1-4)GlcNAc(b1-3)Gal(b1-4)GlcNAc(b1-3)Gal(b1-4)GlcNAc(b1-2)Man(a1-6)]Man(b1-4)GlcNAc(b1-4)[Fuc(a1-6)]GlcNAc
How it was run: as §1

[35] = target: GlcNAc(b1-3)Gal(b1-4)GlcNAc(b1-3)Gal(b1-4)GlcNAc(b1-3)Gal(b1-4)GlcNAc(b1-2)[GlcNAc(b1-3)Gal(b1-4)GlcNAc(b1-3)Gal(b1-4)GlcNAc(b1-3)Gal(b1-4)GlcNAc(b1-6)]Man(a1-6)[GlcNAc(b1-3)Gal(b1-4)GlcNAc(b1-3)Gal(b1-4)GlcNAc(b1-3)Gal(b1-4)GlcNAc(b1-2)Man(a1-3)]Man(b1-4)GlcNAc(b1-4)[Fuc(a1-6)]GlcNAc
How it was run: as §1

[36] = target: GlcNAc(b1-3)Gal(b1-4)GlcNAc(b1-3)Gal(b1-4)GlcNAc(b1-3)Gal(b1-4)GlcNAc(b1-3)Gal(b1-4)GlcNAc(b1-2)Man(a1-3)[GlcNAc(b1-3)Gal(b1-4)GlcNAc(b1-3)Gal(b1-4)GlcNAc(b1-3)Gal(b1-4)GlcNAc(b1-3)Gal(b1-4)GlcNAc(b1-2)Man(a1-6)]Man(b1-4)GlcNAc(b1-4)GlcNAc
How it was run: as §1

[37] = target: GlcNAc(b1-3)Gal(b1-4)GlcNAc(b1-3)Gal(b1-4)GlcNAc(b1-3)Gal(b1-4)GlcNAc(b1-3)Gal(b1-4)GlcNAc(b1-2)Man(a1-3)[GlcNAc(b1-3)Gal(b1-4)GlcNAc(b1-3)Gal(b1-4)GlcNAc(b1-3)Gal(b1-4)GlcNAc(b1-3)Gal(b1-4)GlcNAc(b1-2)Man(a1-6)]Man(b1-4)GlcNAc(b1-4)[Fuc(a1-6)]GlcNAc
How it was run: as §1

[38] = target: GlcNAc(b1-3)Gal(b1-4)GlcNAc(b1-3)Gal(b1-4)GlcNAc(b1-3)Gal(b1-4)GlcNAc(b1-3)Gal(b1-4)GlcNAc(b1-2)[GlcNAc(b1-3)Gal(b1-4)GlcNAc(b1-3)Gal(b1-4)GlcNAc(b1-3)Gal(b1-4)GlcNAc(b1-3)Gal(b1-4)GlcNAc(b1-6)]Man(a1-6)[GlcNAc(b1-3)Gal(b1-4)GlcNAc(b1-3)Gal(b1-4)GlcNAc(b1-3)Gal(b1-4)GlcNAc(b1-3)Gal(b1-4)GlcNAc(b1-2)Man(a1-3)]Man(b1-4)GlcNAc(b1-4)[Fuc(a1-6)]GlcNAc
How it was run: as §1

[39] = target: GlcNAc(b1-3)Gal(b1-4)GlcNAc(b1-3)Gal(b1-4)GlcNAc(b1-3)GalNAc
How it was run: as §1

B1: Fm1D (Escherichia coli) (protein)
chain: FSCNVDGGSSIGAGTTSVYVNLDPVIQPGQNLVVDLSQHISCWNDYGGWYDTDHINLVQGSAFAGSLQSYKGSLYWNNVTYPFPLTTNTNVLDIGDKTPMPLPLKLYITPVGAAGGVVIKAGEVIARIHMYKIATLGSGNPRNFTWNIISNNSVVMPTHHHHHH
glycan array binding signal (z-score) (GlcA(b1-3)Gal): -0.143 | glycan array binding signal (z-score) (GlcA(b1-3)GlcNAc): -0.14 | glycan array binding signal (z-score) (GlcA(b1-6)Gal): -0.114 | glycan array binding signal (z-score) [1]: -0.145 | glycan array binding signal (z-score) [2]: -0.145 | glycan array binding signal (z-score) [3]: -0.149 | glycan array binding signal (z-score) [4]: -0.147 | glycan array binding signal (z-score) [5]: -0.145 | glycan array binding signal (z-score) [6]: -0.148 | glycan array binding signal (z-score) [7]: -0.148 | glycan array binding signal (z-score) [8]: -0.148 | glycan array binding signal (z-score) [9]: -0.149 | glycan array binding signal (z-score) [10]: -0.123 | glycan array binding signal (z-score) [11]: -0.144 | glycan array binding signal (z-score) [12]: -0.147 | glycan array binding signal (z-score) [13]: -0.146 | glycan array binding signal (z-score) [14]: -0.145 | glycan array binding signal (z-score) [15]: -0.143 | glycan array binding signal (z-score) [16]: -0.138 | glycan array binding signal (z-score) [17]: -0.145 | glycan array binding signal (z-score) [18]: -0.145 | glycan array binding signal (z-score) [19]: -0.146 | glycan array binding signal (z-score) [20]: -0.144 | glycan array binding signal (z-score) [21]: -0.141 | glycan array binding signal (z-score) [22]: -0.14 | glycan array binding signal (z-score) [23]: -0.149 | glycan array binding signal (z-score) (GlcNAc(b1-3)Fuc): -0.148 | glycan array binding signal (z-score) (GlcNAc(b1-3)Gal): -0.148 | glycan array binding signal (z-score) [24]: -0.142 | glycan array binding signal (z-score) (GlcNAc(b1-3)Gal(b1-4)Glc): -0.146 | glycan array binding signal (z-score) [25]: -0.146 | glycan array binding signal (z-score) [26]: -0.142 | glycan array binding signal (z-score) [27]: -0.142 | glycan array binding signal (z-score) [28]: -0.134 | glycan array binding signal (z-score) [29]: -0.146 | glycan array binding signal (z-score) [30]: -0.133 | glycan array binding signal (z-score) [31]: -0.137 | glycan array binding signal (z-score) [32]: -0.136 | glycan array binding signal (z-score) [33]: -0.134 | glycan array binding signal (z-score) [34]: -0.139 | glycan array binding signal (z-score) [35]: -0.142 | glycan array binding signal (z-score) [36]: -0.141 | glycan array binding signal (z-score) [37]: -0.13 | glycan array binding signal (z-score) [38]: -0.136 | glycan array binding signal (z-score) [39]: -0.147
